# Data published in article PMC2970546.
# Results are given in words; binding and its absence hold for the method and conditions named. For some of these results: Binding seen in cells or lysates may run through a third protein. Some binding calls cover weakened binding; strength is not graded here. For some of these results: Sequences can lack the tags named with a protein.
# T1: GST-SEPT6 (human) (UniProt Q14141)
# T1 sequence: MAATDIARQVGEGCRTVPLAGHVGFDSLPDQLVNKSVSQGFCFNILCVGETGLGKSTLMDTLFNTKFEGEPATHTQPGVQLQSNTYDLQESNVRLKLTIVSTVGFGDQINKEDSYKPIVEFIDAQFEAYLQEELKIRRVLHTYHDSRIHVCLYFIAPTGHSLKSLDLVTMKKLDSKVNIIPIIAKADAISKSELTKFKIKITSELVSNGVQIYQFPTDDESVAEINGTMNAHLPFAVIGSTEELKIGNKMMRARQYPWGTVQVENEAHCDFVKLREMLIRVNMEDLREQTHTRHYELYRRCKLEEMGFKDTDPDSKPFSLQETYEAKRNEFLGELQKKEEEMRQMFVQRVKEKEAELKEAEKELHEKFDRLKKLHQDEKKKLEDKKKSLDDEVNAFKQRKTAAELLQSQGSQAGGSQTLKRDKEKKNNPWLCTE
# T2: human septin 1 (human) (UniProt Q8WYJ6)
# T2 sequence: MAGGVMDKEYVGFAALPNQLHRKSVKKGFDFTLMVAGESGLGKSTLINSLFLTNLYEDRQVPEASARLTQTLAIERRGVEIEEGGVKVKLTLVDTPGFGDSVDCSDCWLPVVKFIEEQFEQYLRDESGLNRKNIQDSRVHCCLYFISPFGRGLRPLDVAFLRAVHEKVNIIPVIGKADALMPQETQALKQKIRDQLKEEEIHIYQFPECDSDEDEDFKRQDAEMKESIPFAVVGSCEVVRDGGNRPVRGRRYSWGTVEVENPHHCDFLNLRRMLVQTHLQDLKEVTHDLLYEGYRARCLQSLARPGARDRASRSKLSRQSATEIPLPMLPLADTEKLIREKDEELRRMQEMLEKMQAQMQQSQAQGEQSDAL
# T3: human septin 10 (human) (UniProt Q9P0V9)
# T3 sequence: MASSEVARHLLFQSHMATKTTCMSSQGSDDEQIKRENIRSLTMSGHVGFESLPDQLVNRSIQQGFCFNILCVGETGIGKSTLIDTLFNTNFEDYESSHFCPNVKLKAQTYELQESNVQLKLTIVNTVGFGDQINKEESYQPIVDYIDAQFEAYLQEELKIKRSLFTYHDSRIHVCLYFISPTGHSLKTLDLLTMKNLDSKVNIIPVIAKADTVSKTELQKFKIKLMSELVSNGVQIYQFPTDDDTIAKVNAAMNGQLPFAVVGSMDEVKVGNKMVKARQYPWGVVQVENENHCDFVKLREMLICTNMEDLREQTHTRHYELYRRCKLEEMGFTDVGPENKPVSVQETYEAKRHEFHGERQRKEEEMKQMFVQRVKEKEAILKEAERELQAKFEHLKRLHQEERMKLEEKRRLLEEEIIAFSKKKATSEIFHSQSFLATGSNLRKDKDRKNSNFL
# T4: human septin 5 (human) (UniProt Q99719)
# T4 sequence: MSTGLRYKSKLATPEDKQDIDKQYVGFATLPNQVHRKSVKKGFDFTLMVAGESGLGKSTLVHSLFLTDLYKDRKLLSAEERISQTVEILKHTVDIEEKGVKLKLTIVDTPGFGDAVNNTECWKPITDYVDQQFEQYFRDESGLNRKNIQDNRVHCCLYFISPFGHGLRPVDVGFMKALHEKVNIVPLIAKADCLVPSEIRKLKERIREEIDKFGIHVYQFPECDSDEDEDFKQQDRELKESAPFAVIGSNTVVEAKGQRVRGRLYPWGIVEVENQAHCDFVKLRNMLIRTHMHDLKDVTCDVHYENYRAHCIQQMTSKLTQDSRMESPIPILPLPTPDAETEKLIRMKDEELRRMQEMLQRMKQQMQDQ
# T5: human septin 8 (human) (UniProt Q92599)
# T5 sequence: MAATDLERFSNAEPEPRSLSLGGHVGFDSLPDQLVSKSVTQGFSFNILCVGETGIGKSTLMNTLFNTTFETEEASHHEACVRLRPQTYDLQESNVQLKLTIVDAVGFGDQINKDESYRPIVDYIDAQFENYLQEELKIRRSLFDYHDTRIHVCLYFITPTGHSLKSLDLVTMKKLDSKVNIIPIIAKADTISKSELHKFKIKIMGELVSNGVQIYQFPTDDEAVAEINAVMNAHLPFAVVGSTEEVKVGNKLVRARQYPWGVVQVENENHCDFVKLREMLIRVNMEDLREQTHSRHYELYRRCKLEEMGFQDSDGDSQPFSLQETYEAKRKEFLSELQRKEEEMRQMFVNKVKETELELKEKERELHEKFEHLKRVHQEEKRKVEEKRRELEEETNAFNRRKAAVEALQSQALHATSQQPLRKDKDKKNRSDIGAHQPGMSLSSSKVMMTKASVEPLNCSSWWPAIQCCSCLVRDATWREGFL
# What was measured:
# GST-SEPT6 (human) = molecular target: T1, GST-SEPT6 (human); assay: pull-down; co-purification of GST-SEPT6 with a second septin, both expressed together in E. coli; unpublished observations (Nakahira et al.)
# human septin 1 (human) = molecular target: T2, human septin 1 (human); assay: two-hybrid; LexA-septin bait (modified pBTM116) in yeast L40 screened against human fetal brain and human leukocyte cDNA libraries (pACT2); minimal medium without Trp, Leu, His, with 5 mM 3-AT; every clone confirmed one-to-one with its bait by beta-galactosidase filter assay, empty bait vector as control
# human septin 10 (human) = molecular target: T3, human septin 10 (human); assay: as above
# human septin 5 (human) = molecular target: T4, human septin 5 (human); assay: as above
# human septin 8 (human) = molecular target: T5, human septin 8 (human); assay: as above
Binder,binding (GST-SEPT6 (human)),binding (human septin 1 (human)),binding (human septin 10 (human)),binding (human septin 5 (human)),binding (human septin 8 (human))
"septin 1 co-expressed with GST-SEPT6 in E. coli (protein, UniProt Q8WYJ6 1-372) MAGGVMDKEYVGFAALPNQLHRKSVKKGFDFTLMVAGESGLGKSTLINSLFLTNLYEDRQVPEASARLTQTLAIERRGVEIEEGGVKVKLTLVDTPGFGDSVDCSDCWLPVVKFIEEQFEQYLRDESGLNRKNIQDSRVHCCLYFISPFGRGLRPLDVAFLRAVHEKVNIIPVIGKADALMPQETQALKQKIRDQLKEEEIHIYQFPECDSDEDEDFKRQDAEMKESIPFAVVGSCEVVRDGGNRPVRGRRYSWGTVEVENPHHCDFLNLRRMLVQTHLQDLKEVTHDLLYEGYRARCLQSLARPGARDRASRSKLSRQSATEIPLPMLPLADTEKLIREKDEELRRMQEMLEKMQAQMQQSQAQGEQSDAL",binds,–,–,–,–
"septin 2 co-expressed with GST-SEPT6 in E. coli (protein, UniProt Q15019 1-361) MSKQQPTQFINPETPGYVGFANLPNQVHRKSVKKGFEFTLMVVGESGLGKSTLINSLFLTDLYPERVIPGAAEKIERTVQIEASTVEIEERGVKLRLTVVDTPGYGDAINCRDCFKTIISYIDEQFERYLHDESGLNRRHIIDNRVHCCFYFISPFGHGLKPLDVAFMKAIHNKVNIVPVIAKADTLTLKERERLKKRILDEIEEHNIKIYHLPDAESDEDEDFKEQTRLLKASIPFSVVGSNQLIEAKGKKVRGRLYPWGVVEVENPEHNDFLKLRTMLITHMQDLQEVTQDLHYENFRSERLKRGGRKVENEDMNKDQILLEKEAELRRMQEMIARMQAQMQMQMQGGDGDGGALGHHV",binds,–,–,–,–
"human septin 5 (protein, UniProt Q99719-1 1-369) MSTGLRYKSKLATPEDKQDIDKQYVGFATLPNQVHRKSVKKGFDFTLMVAGESGLGKSTLVHSLFLTDLYKDRKLLSAEERISQTVEILKHTVDIEEKGVKLKLTIVDTPGFGDAVNNTECWKPITDYVDQQFEQYFRDESGLNRKNIQDNRVHCCLYFISPFGHGLRPVDVGFMKALHEKVNIVPLIAKADCLVPSEIRKLKERIREEIDKFGIHVYQFPECDSDEDEDFKQQDRELKESAPFAVIGSNTVVEAKGQRVRGRLYPWGIVEVENQAHCDFVKLRNMLIRTHMHDLKDVTCDVHYENYRAHCIQQMTSKLTQDSRMESPIPILPLPTPDAETEKLIRMKDEELRRMQEMLQRMKQQMQDQ",–,binds,no binding,binds,binds
"human septin 8 (protein, UniProt Q92599-1 1-483) MAATDLERFSNAEPEPRSLSLGGHVGFDSLPDQLVSKSVTQGFSFNILCVGETGIGKSTLMNTLFNTTFETEEASHHEACVRLRPQTYDLQESNVQLKLTIVDAVGFGDQINKDESYRPIVDYIDAQFENYLQEELKIRRSLFDYHDTRIHVCLYFITPTGHSLKSLDLVTMKKLDSKVNIIPIIAKADTISKSELHKFKIKIMGELVSNGVQIYQFPTDDEAVAEINAVMNAHLPFAVVGSTEEVKVGNKLVRARQYPWGVVQVENENHCDFVKLREMLIRVNMEDLREQTHSRHYELYRRCKLEEMGFQDSDGDSQPFSLQETYEAKRKEFLSELQRKEEEMRQMFVNKVKETELELKEKERELHEKFEHLKRVHQEEKRKVEEKRRELEEETNAFNRRKAAVEALQSQALHATSQQPLRKDKDKKNRSDIGAHQPGMSLSSSKVMMTKASVEPLNCSSWWPAIQCCSCLVRDATWREGFL",–,–,no binding,binds,no binding
"human septin 10 (protein, UniProt Q9P0V9 1-454) MASSEVARHLLFQSHMATKTTCMSSQGSDDEQIKRENIRSLTMSGHVGFESLPDQLVNRSIQQGFCFNILCVGETGIGKSTLIDTLFNTNFEDYESSHFCPNVKLKAQTYELQESNVQLKLTIVNTVGFGDQINKEESYQPIVDYIDAQFEAYLQEELKIKRSLFTYHDSRIHVCLYFISPTGHSLKTLDLLTMKNLDSKVNIIPVIAKADTVSKTELQKFKIKLMSELVSNGVQIYQFPTDDDTIAKVNAAMNGQLPFAVVGSMDEVKVGNKMVKARQYPWGVVQVENENHCDFVKLREMLICTNMEDLREQTHTRHYELYRRCKLEEMGFTDVGPENKPVSVQETYEAKRHEFHGERQRKEEEMKQMFVQRVKEKEAILKEAERELQAKFEHLKRLHQEERMKLEEKRRLLEEEIIAFSKKKATSEIFHSQSFLATGSNLRKDKDRKNSNFL",–,–,no binding,–,no binding

# Further lines, results first:
binding (GST-SEPT6 (human)),binding (human septin 1 (human)),binding (human septin 10 (human)),binding (human septin 5 (human)),binding (human septin 8 (human)),Binder
binds,–,–,–,–,"septin 5 co-expressed with GST-SEPT6 in E. coli (protein, UniProt Q99719 1-369) MSTGLRYKSKLATPEDKQDIDKQYVGFATLPNQVHRKSVKKGFDFTLMVAGESGLGKSTLVHSLFLTDLYKDRKLLSAEERISQTVEILKHTVDIEEKGVKLKLTIVDTPGFGDAVNNTECWKPITDYVDQQFEQYFRDESGLNRKNIQDNRVHCCLYFISPFGHGLRPVDVGFMKALHEKVNIVPLIAKADCLVPSEIRKLKERIREEIDKFGIHVYQFPECDSDEDEDFKQQDRELKESAPFAVIGSNTVVEAKGQRVRGRLYPWGIVEVENQAHCDFVKLRNMLIRTHMHDLKDVTCDVHYENYRAHCIQQMTSKLTQDSRMESPIPILPLPTPDAETEKLIRMKDEELRRMQEMLQRMKQQMQDQ"
binds,–,–,–,–,"septin 7 co-expressed with GST-SEPT6 in E. coli (protein, UniProt Q16181 1-437) MSVSARSAAAEERSVNSSTMVAQQKNLEGYVGFANLPNQVYRKSVKRGFEFTLMVVGESGLGKSTLINSLFLTDLYSPEYPGPSHRIKKTVQVEQSKVLIKEGGVQLLLTIVDTPGFGDAVDNSNCWQPVIDYIDSKFEDYLNAESRVNRRQMPDNRVQCCLYFIAPSGHGLKPLDIEFMKRLHEKVNIIPLIAKADTLTPEECQQFKKQIMKEIQEHKIKIYEFPETDDEEENKLVKKIKDRLPLAVVGSNTIIEVNGKRVRGRQYPWGVAEVENGEHCDFTILRNMLIRTHMQDLKDVTNNVHYENYRSRKLAAVTYNGVDNNKNKGQLTKSPLAQMEEERREHVAKMKKMEMEMEQVFEMKVKEKVQKLKDSEAELQRRHEQMKKNLEAQHKELEEKRRQFEDEKANWEAQQRILEQQNSSRTLEKNKKKGKIF"
